# In PMC4336329 (PLoS ONE, 2015):
# Screen size: about 310,000 compounds; about 14,000 (4.5%) showed an effect of 50% or more. Effects have a minus sign here. The list shows a part of the results.
# Target: human ether-à-go-go-related gene (hERG) potassium channel (human, UniProt Q12809)
# Test: primary screen, population patch clamp on CHO cells stably expressing hERG
# 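Further: peak tail current of the secondary pulse compared with the same well before compound.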
# Chain of human ether-à-go-go-related gene (hERG) potassium channel (Q12809 whole entry, looked up): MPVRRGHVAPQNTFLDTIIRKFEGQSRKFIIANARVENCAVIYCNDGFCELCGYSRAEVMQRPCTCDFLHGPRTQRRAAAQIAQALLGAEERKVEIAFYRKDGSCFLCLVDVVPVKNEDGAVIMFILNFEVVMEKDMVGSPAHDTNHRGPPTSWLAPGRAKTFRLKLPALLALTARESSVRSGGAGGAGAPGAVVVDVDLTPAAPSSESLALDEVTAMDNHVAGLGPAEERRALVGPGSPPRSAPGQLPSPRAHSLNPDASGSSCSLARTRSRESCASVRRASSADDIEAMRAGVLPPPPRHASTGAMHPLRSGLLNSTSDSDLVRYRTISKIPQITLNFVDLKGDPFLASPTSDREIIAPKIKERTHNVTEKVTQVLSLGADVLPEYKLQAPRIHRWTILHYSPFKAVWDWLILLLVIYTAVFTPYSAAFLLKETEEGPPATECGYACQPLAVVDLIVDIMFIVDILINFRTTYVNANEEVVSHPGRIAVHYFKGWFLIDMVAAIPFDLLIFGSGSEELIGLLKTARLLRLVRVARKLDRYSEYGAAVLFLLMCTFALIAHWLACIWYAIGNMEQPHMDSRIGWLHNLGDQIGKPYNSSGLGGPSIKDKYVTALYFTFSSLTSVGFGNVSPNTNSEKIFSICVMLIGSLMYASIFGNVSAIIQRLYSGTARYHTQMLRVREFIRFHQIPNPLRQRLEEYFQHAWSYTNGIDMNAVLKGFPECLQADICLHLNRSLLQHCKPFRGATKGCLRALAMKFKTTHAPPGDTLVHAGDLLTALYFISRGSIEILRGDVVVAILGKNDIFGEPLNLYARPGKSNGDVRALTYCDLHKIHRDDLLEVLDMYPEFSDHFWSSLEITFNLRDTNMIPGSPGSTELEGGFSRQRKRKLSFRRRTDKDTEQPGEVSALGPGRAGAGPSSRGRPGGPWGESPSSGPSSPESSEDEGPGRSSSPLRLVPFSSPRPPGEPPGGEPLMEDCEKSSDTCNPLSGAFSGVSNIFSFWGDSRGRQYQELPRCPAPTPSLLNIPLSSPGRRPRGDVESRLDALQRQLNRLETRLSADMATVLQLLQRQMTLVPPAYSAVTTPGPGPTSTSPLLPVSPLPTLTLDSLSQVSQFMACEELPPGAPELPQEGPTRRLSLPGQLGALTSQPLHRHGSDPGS
row,Compound,"hERG current change (%, negative = inhibition) at 10uM [%]"
1,CCCc1[nH]nc2c1C(c1ccc(O)cc1OCC)C(C#N)=C(N)O2 (centres unmarked),4.53
2,COc1ccccc1CNC(=O)CN1CCN(S(=O)(=O)c2cccs2)CC1,35.6
3,O=C(CSc1nc2ccccc2o1)N/N=C/c1ccc(C(=O)O)cc1,30.4
4,CC(=O)NCC(=O)OCC(=O)c1ccccc1,1.61
5,COc1ccc([C@@H]2CC=C(C(=O)O)CN2S(=O)(=O)c2ccc(Cl)cc2)cc1,7.54
6,COCCN(C(=O)c1ccccc1F)c1nc(-c2ccc(OC)cc2)cs1,16.7
7,O=C(COc1ccc2oc(-c3ccco3)cc(=O)c2c1)N1CCCCC1,-14.6
8,CCN(CC)S(=O)(=O)c1cccc(NC(=O)CCNC(=O)NC23CC4CC(CC(C4)C2)C3)c1,1.99
9,C=CCn1c(SCc2c(C)noc2C)nc2ccccc2c1=O,-36.7
10,CC1(C)CC(=O)C(C=Nc2ccc(Cl)cn2)=C(O)C1,11.6
11,CC(C)(C)OC(=O)NCc1n[nH]c(=S)n1C1CC1,14.5
12,CC(=O)NCCC(=O)Nc1nc(-c2cccs2)c(-c2cccs2)s1,-6.66
13,COc1ccc(S(=O)(=O)NCc2ccccn2)cc1NC(=O)c1ccc(C)cc1,-16.5
14,O=C(CCC(=O)N1CCSc2ccccc21)NCc1ccc(Cl)cc1,-33.8
15,COc1ccc2c(c1OC)CN1CCc3cc4c(cc3[C@@H]1[C@@H]2O)OCO4,0.379
16,COC(=O)N1CCCc2cc(C)ccc21,9.64
17,O=C(NCc1ccccc1)C1Nc2ccc(OC(F)(F)F)cc2C2C=CCC12 (centres unmarked),3.1
18,COCc1ccc(CN2CCC(N3CCC(C(=O)N4CCCC4)CC3)CC2)o1,8.86
19,COc1ccc(NC(=O)c2cc(S(=O)(=O)N3CCc4ccccc43)cn2C)cc1OC,-5.54
20,COc1ccc(NC(=O)CCC(=O)c2ccc(Cl)cc2)cn1,-14.9
21,CCOC(=O)Cn1c(S(=O)(=O)Cc2cccc(F)c2)nc(-c2ccccc2)c1-c1ccccc1,-7.05
22,Cc1cc(C)nc(SCc2nnc(SCC(=O)Nc3nccs3)n2Cc2ccco2)n1,-25

row,Compound,"hERG current change (%, negative = inhibition) at 10uM [%]"
1,Oc1ccc(Br)cc1C=Nc1ccc2c3c(cccc13)CC2,4.05
2,O=C(NCCSc1ccc(Cl)cc1)c1ccc(CN2CCOCC2)cc1,-58.5
3,COc1cc(S(=O)(=O)N(Cc2ccccc2)CC2CCCO2)ccc1-n1cnnn1 (centres unmarked),-23.2
4,NS(=O)(=O)c1ccc(NC(=O)c2c(Cl)cccc2Cl)cc1,9.38
5,COc1ccc(Cl)cc1NC(=S)N(Cc1ccccc1C)CC1CCC(C(=O)O)CC1 (centres unmarked),38.1
6,Nc1nnc(CCC2CCCCC2)s1,15.9
7,O=C(COc1cc(F)ccc1[N+](=O)[O-])Nc1cccc(S(=O)(=O)NC2=NCCC2)c1,14.1
8,COc1ccc(CNC(=O)c2coc(=O)c3ccccc23)c(OC)c1,8.38
9,Cc1c2cnn(CC(=O)NCCN3CCOCC3)c(=O)c2c(C)n1Cc1ccccc1,-4.24
10,O=C(O)C(=O)O.O=[N+]([O-])c1ccc(S(=O)(=O)N2CCN(Cc3c[nH]c4ccccc34)CC2)cc1,-54.5
11,O=C(Nc1ccc(N2CCOCC2)c(Cl)c1)c1cccc(F)c1,-21.2
12,CCOc1cc(C(=O)OCC(=O)N(C)c2ccccc2)cc(OCC)c1OCC,-17.6
13,Cc1c(NC(=O)CSc2nc(N)cc(N)n2)c(=O)n(-c2ccccc2)n1C,19.1
14,O=C1NC(=O)C(=Cc2ccc3ccccc3c2)C(=O)N1,11.5
15,Cc1ccc(NC(=O)CSc2nc3ccccc3nc2N2CCOCC2)cc1,-24.5
16,Cc1c(NC(=O)C(C)OC(=O)C(NC(=O)c2ccco2)C(C)C)c(=O)n(-c2ccccc2)n1C (centres unmarked),-10.3
17,CC(C)(C)NC(=O)CCc1ncc(C(F)(F)F)cc1Cl,5.77
18,Cc1ccc(C(CNC(=O)c2ccco2)N2CCN(C)CC2)cc1 (centres unmarked),-11.1
19,COc1ccc2nc(SCC(=O)NC3CCCCC3)[nH]c2c1,1.06
20,COc1ccc(CCNC(=O)Cn2cnc3c2c(=O)n(C)c(=O)n3C)cc1OC,7.63
21,CC1CCN(C(C(=O)Nc2ccc3c(c2)OCO3)c2ccccc2)CC1 (centres unmarked),-21.4
22,COc1ccc(-n2c(=O)[nH]c3ccccc3c2=O)cc1,11.9

row,Compound,"hERG current change (%, negative = inhibition) at 10uM [%]"
1,O=[N+]([O-])c1ccc(CP(=O)(c2ccccc2)c2ccccc2)cc1,-2.54
2,COc1cc(OC)c(C(=O)OCCCOC(=O)c2cc(OC)c(OC)cc2OC)cc1OC,-0.942
3,CCN(CC)CCCNC(=O)C1CCC(=O)N(c2ccc(OC)cc2)C1c1ccc(F)cc1 (centres unmarked),1.14
4,O=C(CSC1CC(=O)N(c2ccc(C(=O)O)cc2)C1=O)Nc1ccc(Cl)cc1 (centres unmarked),6.13
5,COc1ccc(OC)c(-c2cc(C(=O)Nc3cccc(Cl)c3)no2)c1,3.77
6,O=C(CCc1c[nH]c2ccccc12)N1CCN(c2ccc(O)cc2)CC1,-11.3
7,COc1cc([N+](=O)[O-])cc(/C=N/NC(=O)c2cccnc2)c1O,2.46
8,CC(C)(C)OC(=O)N1CCCC(C(=O)CC#N)C1 (centres unmarked),0.525
9,COc1cc(C(=O)Nc2ccc(S(=O)(=O)N(C)c3ccccc3)cc2)cc(OC)c1OC,-3.53
10,CCCCNC(=O)CSc1nc2n[nH]c(C)c2c(=N)n1-c1cccc(Cl)c1C,-1.7
11,Cc1nn(C)c(C)c1/C=C(\C#N)C(N)=O,12.3
12,CCN(CC)S(=O)(=O)c1cc(C(=O)Nc2cccnc2)ccc1Cl,-67.9
13,CN(c1ccc(C(=O)N2CCCCC2)cc1)S(=O)(=O)c1ccccc1,-10.8
14,CC(C)(C)c1cc(NC(=O)CSc2nnc(N)s2)n(-c2ccccc2)n1,-29.1
15,CSCCC(NC(=O)c1ccco1)C(=O)Nc1ccc(C)c(S(=O)(=O)N2CCOCC2)c1 (centres unmarked),-4.74
16,NC(=O)c1ccsc1NC(=O)CSc1nc2ccccc2c(=O)n1CCCO,-9.94
17,CC(C)OC(=O)Cn1nnc2c(cnn2-c2ccccc2)c1=O,-11.1
18,CC(Oc1ccc(F)cc1)C(=O)Nc1cc(S(=O)(=O)N2CCCCC2)ccc1N1CCOCC1 (centres unmarked),-5.21
19,CC(C)C(OC(=O)c1cccs1)C(=O)NCc1ccc(F)cc1 (centres unmarked),4.04
20,Cc1cccc(Nc2nnc(SCC(=O)Nc3ccccc3[N+](=O)[O-])s2)c1,10.5
21,Cc1ccc(C(=O)O)cc1[N+](=O)[O-],16.1
22,Cc1ccc(S(=O)(=O)n2nc(-c3ccc(Cl)cc3)nc2NCc2ccco2)cc1,-4.03

row,Compound,"hERG current change (%, negative = inhibition) at 10uM [%]"
1,O=[N+]([O-])c1ccccc1S(=O)(=O)NCCc1ccncc1,14.9
2,O=[N+]([O-])c1ccc(Nc2ccc(Cl)cc2)nc1,21.7
3,CCn1cc(CN2CCCC(C(=O)Nc3cccc(-c4cc5ccccc5[nH]4)c3)C2)cn1 (centres unmarked),-6.49
4,COc1ccc(N2CCN(C(=O)c3cccnc3SCc3cccc(Br)c3)CC2)cc1,0.381
5,CCCCOC(=O)CSC(=S)N(C)Cc1cccs1,-7.39
6,Nc1cc(S(=O)(=O)N2CCCCC2)ccc1N1CCOCC1,4.5
7,COc1ccc(-c2csc(NC(=O)CSc3ccc(Br)cc3)n2)c(OC)c1,17.4
8,O=c1cc(CSc2ccccn2)nc(N2CCN(c3ccccc3)CC2)[nH]1,-17
9,O=C(COC(=O)CNC(=O)c1ccccc1F)Nc1ccc2[nH]c(=O)[nH]c2c1,10.2
10,CCc1c(C(=O)NN2C(=O)C3C4CCC(O4)C3C2=O)csc1C (centres unmarked),13.3
11,O=C(O)c1ccc(Nc2nc(-c3cccnc3)cs2)cc1O,9.69
12,COc1ccccc1-[n+]1c(C)cc(/C=C2\Sc3ccccc3N2C)cc1C.[I-],-69.6
13,Cc1cc2nc(NCCCO)n(CC(=O)c3cc(C(C)(C)C)c(O)c(C(C)(C)C)c3)c2cc1C,7.23
14,COc1ccc(CC(=O)OCC(=O)N2CCN(S(=O)(=O)c3ccc(C)cc3C)CC2)cc1,-10.8
15,CCn1c(Cc2ccc(OC)cc2)nnc1SCc1nc2ccccc2c(=O)[nH]1,-0.172
16,CCCOc1ccccc1C1CC(=O)Nc2cc3c(cc21)OCCO3 (centres unmarked),3.65
17,CCN(C(C)=O)c1cccc2ccccc12,6.52
18,CCCCC(CCC(=O)O)(C(=O)OCC)c1csc(Nc2ccc(C)cc2)n1 (centres unmarked),-0.891
19,COc1nc(-c2ccccc2)c2c(c1C#N)CC(C)(C)OC2,-11.2
20,CCOC(=O)C1CCN(c2ccc([N+](=O)[O-])c(C(C)=O)c2)CC1,-11.8
